Data set [1] concerns the target T1, Cathepsin L (Homo sapiens, UniProt P07711). The data set is described as follows: Cathepsin L kinetic assay. The conditions noted are these: for Ki: initial reversible binding, regressed from progress curves, 10 μM Z-FR-AMC.
The subject of data set [2] is T. cruzi CA-I/72 intracellular amastigote. In words: Cell-based intracellular T. cruzi amastigote assay.
Data set [3] has as its system epimastigotes (insect) stage of T. cruzi. The conditions noted are these: previous studies; cited from earlier work.
A further data set deals with C2C12 mouse myoblasts. The data set is described as follows: Host cell cytotoxicity in T. cruzi assay. The conditions noted are these: for highest concentration without toxicity to host cells: murine host cells.
Data set [4] concerns the target T1, Cathepsin L. In words: Preincubation-dilution reversibility experiment. It is filed as biochemical.

The values that follow come from PMC7240701 (Journal of medicinal chemistry, 2019).

For orientation: Ki means the dissociation constant of the complex between target and ligand, obtained from inhibition or displacement. For orientation: kinact/KI means the second-order rate constant of inactivation.

Structures are written as SMILES. Several values for one entry are separate records, joined by “and”; a condition that tells them apart may be missing. Identical values can stand only once.

`C#CCCCCOC1=CC(=O)N(C(=O)/C=C/[C@H](C)NC(=O)[C@H](CC(C)C)NC(=O)[C@H](CC(C)C)OC(=O)[C@H]([C@@H](C)CC)N(C)C)C1C` (stereo in doubt) [compound 16, (S)-1-(((S)-1-(((S,E)-5-((S)-3-(Hex-5-yn-1-yloxy)-2-methyl-5-oxo-2,5-dihydro-1H-pyrrol-1-yl)-5-oxopent-3-en-2-yl)amino)-4-methyl-1-oxopentan-2-yl)amino)-4-methyl-1-oxopentan-2-yl dimethyl-L-isoleucinate]: the Ki result on Cathepsin L [1] is “sub-nanomolar”.
In data set [2] (positive control, same cell-based assay), `O=C(Cn1ccnc1[N+](=O)[O-])NCc1ccccc1` [benznidazole, reference compound] came in with an LD50 of 1.5 µM.
On to `CC[C@H](C)[C@@H](C(=O)O[C@@H](CC(C)C)C(=O)N[C@@H](CC(C)C)C(=O)N[C@@H](C)/C=C/C(=O)N1C(=O)C=C(OC)[C@@H]1C)N(C)C` [compound 1, Gallinamide A], for which, in data set [3], the “activity against T. cruzi epimastigotes” value is on record as “very low or no activity”. For the same compound, the kinact/KI at Cathepsin L [1] came to 901000 M⁻¹ s⁻¹. Further, the affinity at Cathepsin L [1] (Ki), expressed as Ki, was 4.67 ± 0.4 nM. Moreover, in data set [2] (20 nM, nuclear stain images), the “elimination of parasites from infected murine cells” value was “eliminates the majority of parasites”. Further, the “highest concentration without toxicity to host cells” value in the data set on C2C12 mouse myoblasts was > 10 µM.
In the case of `CC[C@H](C)[C@@H](C(=O)O[C@@H](CC(C)C)C(=O)N[C@@H](CC(C)C)C(=O)N[C@@H](C)/C=C/C(=O)N1C(=O)C=C(OC)[C@@H]1CC(C)C)N(C)C` [compound 5, (S)-1-(((S)-1-(((S,E)-5-((S)-2-Isobutyl-3-methoxy-5-oxo-2,5-dihydro-1H-pyrrol-1-yl)-5-oxopent-3-en-2-yl)amino)-4-methyl-1-oxopentan-2-yl)amino)-4-methyl-1-oxopentan-2-yl dimethyl-L-isoleucinate], the “IC50 (antiparasitic activity)” value in data set [2] (intracellular amastigotes in C2C12 cells, 72 h) was “single digit nanomolar”. Moreover, in the data set on C2C12 mouse myoblasts, the “highest concentration without toxicity to host cells” value is > 10 µM. In addition, the “activity to the host cell” value with C2C12 mouse myoblasts (stated in abstract) was “relatively inactive”.
Consider `CC[C@H](C)[C@@H](C(=O)O[C@@H](CC(C)C)C(=O)N[C@@H](CC(C)C)C(=O)N[C@H](/C=C/C(=O)N1C(=O)C=C(OC)[C@@H]1Cc1ccccc1)Cc1ccccc1)N(C)C` [compound 8, (S)-1-(((S)-1-(((S,E)-5-((S)-2-Benzyl-3-methoxy-5-oxo-2,5-dihydro-1H-pyrrol-1-yl)-5-oxo-1-phenylpent-3-en-2-yl)amino)-4-methyl-1-oxopentan-2-yl)amino)-4-methyl-1-oxopentan-2-yl dimethyl-L-isoleucinate], for which the kinact/KI on Cathepsin L [1] turned out to be 719000 M⁻¹ s⁻¹.
Consider `CC[C@H](C)[C@@H](C(=O)O[C@@H](CC(C)C)C(=O)N[C@@H](CC(C)C)C(=O)N[C@H](/C=C/C(=O)N1C(=O)C=C(OC)[C@@H]1CC(C)C)Cc1ccccc1)N(C)C` [compound 10, (S)-1-(((S)-1-(((S,E)-5-((S)-2-Isobutyl-3-methoxy-5-oxo-2,5-dihydro-1H-pyrrol-1-yl)-5-oxo-1-phenylpent-3-en-2-yl)amino)-4-methyl-1-oxopentan-2-yl)amino)-4-methyl-1-oxopentan-2-yl dimethyl-L-isoleucinate], for which the inhibition constant (Ki) on Cathepsin L [1] (Ki) was 0.0937 nM and 0.094 nM; at Cathepsin L [1] it was “sub-nanomolar”.
For `COC1=CC(=O)N(C(=O)/C=C/[C@H](Cc2ccccc2)NC(=O)[C@H](CC(C)C)NC(=O)[C@H](CC(C)C)OC(=O)[C@H](C(C)C)N(C)C)[C@H]1CC(C)C` [compound 11, (S)-1-(((S)-1-(((S,E)-5-((S)-2-Isobutyl-3-methoxy-5-oxo-2,5-dihydro-1H-pyrrol-1-yl)-5-oxo-1-phenylpent-3-en-2-yl)amino)-4-methyl-1-oxopentan-2-yl)amino)-4-methyl-1-oxopentan-2-yl dimethyl-L-valinate], at Cathepsin L [1], the Ki entry is “sub-nanomolar”.
Take `CC[C@H](C)[C@@H](C(=O)O[C@@H](CC(C)C)C(=O)N[C@@H](CC(C)C)C(=O)N[C@H](/C=C/C(=O)N1C(=O)C=C(OC)[C@H]1Cc1ccccc1)Cc1ccccc1)N(C)C` [compound 12, (S)-1-(((S)-1-(((S,E)-5-((R)-2-Benzyl-3-methoxy-5-oxo-2,5-dihydro-1H-pyrrol-1-yl)-5-oxo-1-phenylpent-3-en-2-yl)amino)-4-methyl-1-oxopentan-2-yl)amino)-4-methyl-1-oxopentan-2-yl dimethyl-L-isoleucinate]: at Cathepsin L [1], the inactivation efficiency (kinact/KI) was 1.03e+06 M⁻¹ s⁻¹.
Turning to `CC[C@H](C)[C@@H](C(=O)O[C@@H](CC(C)C)C(=O)N[C@@H](CC(C)C)C(=O)N[C@@H](/C=C/C(=O)N1C(=O)C=C(OC)[C@@H]1Cc1ccccc1)Cc1ccccc1)N(C)C` [compound 14, (S)-1-(((S)-1-(((R,E)-5-((S)-2-Benzyl-3-methoxy-5-oxo-2,5-dihydro-1H-pyrrol-1-yl)-5-oxo-1-phenylpent-3-en-2-yl)amino)-4-methyl-1-oxopentan-2-yl)amino)-4-methyl-1-oxopentan-2-yl dimethyl-L-isoleucinate], the kinact/KI on Cathepsin L [1] was determined as 6900 M⁻¹ s⁻¹. Besides, at Cathepsin L [1] (d-Phe at fourth residue (R'), comparing 8 with 14), the “reduction in activity (cathepsin L)” value is listed as > 100 fold.
For the compound `CC[C@H](C)[C@@H](C(=O)O[C@@H](CC(C)C)C(=O)N[C@@H](CC(C)C)C(=O)N[C@@H](/C=C/C(=O)N1C(=O)C=C(OC)[C@H]1Cc1ccccc1)Cc1ccccc1)N(C)C` [compound 15, (S)-1-(((S)-1-(((R,E)-5-((R)-2-Benzyl-3-methoxy-5-oxo-2,5-dihydro-1H-pyrrol-1-yl)-5-oxo-1-phenylpent-3-en-2-yl)amino)-4-methyl-1-oxopentan-2-yl)amino)-4-methyl-1-oxopentan-2-yl dimethyl-L-isoleucinate], at Cathepsin L [1], the kinact/KI came out at 23900 M⁻¹ s⁻¹.
Consider `CC[C@H](C)[C@@H](C(=O)O[C@@H](CC(C)C)C(=O)N[C@@H](CC(C)C)C(=O)N[C@@H](C)CCC(=O)N1C(=O)C=C(OC)[C@@H]1C)N(C)C` [compound 17, (S)-1-(((S)-1-(((S)-5-((S)-3-Methoxy-2-methyl-5-oxo-2,5-dihydro-1H-pyrrol-1-yl)-5-oxopentan-2-yl)amino)-4-methyl-1-oxopentan-2-yl)amino)-4-methyl-1-oxopentan-2-yl dimethyl-L-isoleucinate], for which the “catalytic activity upon dilution” value on Cathepsin L [4] (of initial activity, 1 hour of kinetic readings) was “approximately 75%”. Moreover, the mode of inhibition entry at Cathepsin L [4] (preincubation-dilution) was “reversible”.
